# Reference: the supplement of paper PMC12582362
# Counter-ions that a name gives are not always drawn. Among all 1,500 compounds or so, about 30 (2%) showed activity.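 The calls were made as follows: active = robust z-score below -2; a few such results were not called.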 This is one part of the list.
# Tested on: optoTopBP1 Flp-In 293 T-REx (HEK293) cells
# Experiment: light-induced TopBP1 condensate (nuclear foci) count, plate-normalised robust z-score vs non-control wells; higher = more TopBP1 condensates (negative = condensation inhibitor), active = hit call of the paper
# Settings: 10 µM; incubation time 2 h
row,Compound,light-induced TopBP1 condensate (z-score)
1,Cn1c(=O)c2[nH]cnc2n(C)c1=O [Aminophylline],inactive: 0.624
2,CS(=O)(=O)c1ccc(C2=C(c3ccccc3)C(=O)OC2)cc1 [Rofecoxib],inactive: 1.03
3,CN(C)CCC=C1c2ccccc2CCc2ccccc21 [Amitryptiline hydrochloride],inactive: -0.226
4,Cc1ccnc2c1NC(=O)c1cccnc1N2C1CC1 [Nevirapine],inactive: -0.183
5,Cc1[nH]c(=O)c(C#N)cc1-c1ccncc1 [Milrinone],inactive: 1.01
6,CC(=O)N[C@@H](CCC(N)=O)C(=O)O [Acetyl-L-glutamine],inactive: -0.0671
7,CN(C)CC/C=C1\c2ccccc2CSc2ccccc21 [Dosulepin hydrochloride],inactive: 0.0482
8,CC(C)(Oc1ccc(Cl)cc1)C(=O)O [Clofibric acid],inactive: -0.339
9,Cn1c(=O)c2c(ncn2CC(=O)O)n(C)c1=O [Acefylline],inactive: 0.889
10,O=C(O)C1CSCN1 (centres undefined) [Timonacic],inactive: -0.605
11,CO[C@H]1C[C@H](O[C@H]2[C@H](C)[C@@H](O[C@@H]3O[C@H](C)C[C@H](N(C)C)[C@H]3OC(C)=O)[C@@H](C)C[C@@]3(CO3)C(=O)[C@H](C)[C@@H](OC(C)=O)[C@@H](C)[C@@H](C)OC(=O)[C@@H]2C)O[C@@H](C)[C@@H]1OC(C)=O [Troleandomycin],inactive: 0.939
12,Cc1cc(C(=O)NNCc2ccccc2)no1 [Isocarboxazid],inactive: -0.0175
13,COc1cc(OC)c(C(=O)CCCN2CCCC2)c(OC)c1 [Buflomedil hydrochloride],inactive: -0.012
14,N#CC(c1ccc(Cl)cc1)c1c(Cl)cc(-n2ncc(=O)[nH]c2=O)cc1Cl (centres undefined) [Diclazuril],inactive: -0.132
15,CNC(=O)OCc1cccc(COC(=O)NC)n1 [Pyricarbate],inactive: 0.0628
16,CCN1C(=O)NC(c2ccccc2)C1=O (centres undefined) [Ethotoin],inactive: 0.403
17,CN1CCC(=C2c3ccccc3CC(=O)c3sccc32)CC1 [Ketotifen fumarate],inactive: 0.179
18,CN1CCCC(CC2c3ccccc3Sc3ccccc32)C1 (centres undefined) [Metixene hydrochloride],inactive: -0.0636
19,COc1ccccc1N1CCN(CC(O)COc2cccc3ccccc23)CC1 (centres undefined) [Naftopidil dihydrochloride],inactive: 0.998
20,CC(COc1ccccc1)NN (centres undefined) [Phenoxypropazine dihydrochloride],inactive: 0.724
21,COc1ccc2c(c1)N(C[C@H](C)CN(C)C)c1ccccc1S2 [Methotrimeprazine maleat salt],inactive: -1.01
22,CCCN(CCC)C(=O)C(CCC(=O)O)NC(=O)c1ccccc1 (centres undefined) [Proglumide],inactive: 0.915

row,Compound,light-induced TopBP1 condensate (z-score)
1,CC(C)(Sc1cc(C(C)(C)C)c(O)c(C(C)(C)C)c1)Sc1cc(C(C)(C)C)c(O)c(C(C)(C)C)c1 [Probucol],inactive: 0.588
2,CS(=O)(=O)CCNCc1ccc(-c2ccc3ncnc(Nc4ccc(OCc5cccc(F)c5)c(Cl)c4)c3c2)o1 [Lapatinib],inactive: 0.341
3,Nc1c(Br)cc(Br)cc1CN[C@H]1CC[C@H](O)CC1 [Ambroxol hydrochloride],inactive: 0.333
4,Cn1ccnc1S [Methimazole],inactive: -0.456
5,CCC(=O)c1ccc(O)cc1 [Paroxypropione],inactive: 0.215
6,O=c1cc(-c2ccc(O)c(O)c2)oc2cc(O)cc(O)c12 [Luteolin],inactive: -0.31
7,CC(C)(C(=O)c1cccnc1)c1cccnc1 [Metyrapone],inactive: -0.113
8,"CC(C)(S)C(N)C(=O)O (racemic) [D,L-Penicillamine]",inactive: 1.98
9,CC(=O)N(O)CCCCCNC(=O)CCC(=O)N(O)CCCCCNC(=O)CCC(=O)N(O)CCCCCN [Deferoxamine mesylate],inactive: 0.967
10,CC(C)/N=c1\cc2n(-c3ccc(Cl)cc3)c3ccccc3nc-2cc1Nc1ccc(Cl)cc1 [Clofazimine],inactive: -0.176
11,O=C1Cc2cc(CCN3CCN(c4nsc5ccccc45)CC3)c(Cl)cc2N1 [Ziprasidone  Hydrochloride],inactive: -0.964
12,CCN[C@H]1C[C@H](C)S(=O)(=O)c2sc(S(N)(=O)=O)cc21 [Dorzolamide hydrochloride],inactive: -0.91
13,CCCC(=O)N1CCCN(c2nc(N)c3cc(OC)c(OC)cc3n2)CC1 [Bunazosin hydrochloride],inactive: 0.537
14,CO[C@@]1(NC(=O)CSCC#N)C(=O)N2C(C(=O)O)=C(CSc3nnnn3C)CS[C@@H]21 [Cefmetazole sodium salt],inactive: 0.556
15,C[C@@H]1[C@H](O)[C@@H](C)/C=C/C=C/C=C/C=C/C=C/C=C/C=C/[C@H](O[C@@H]2O[C@H](C)[C@@H](O)[C@H](N)[C@@H]2O)C[C@@H]2O[C@](O)(C[C@@H](O)C[C@@H](O)[C@H](O)CC[C@@H](O)C[C@@H](O)CC(=O)O[C@H]1C)C[C@H](O)[C@H]2C(=O)O [Amphotericin B],inactive: 0.0853
16,CCOC(=O)C(C)(C)Oc1ccc(Cl)cc1 [Clofibrate],inactive: 0.172
17,CC(C)NC[C@H](O)COc1ccc(CC(N)=O)cc1 [(S)-(-)-Atenolol],inactive: 0.134
18,CN1C2=CC(=O)/C(=N\NC(N)=O)C=C2CC1S(=O)(=O)O (centres undefined) [Carbazochrome sodium sulfonate],inactive: -0.462
19,CCC(Cc1c(I)cc(I)c(N)c1I)C(=O)O (centres undefined) [Iopanoic acid],inactive: 1.03
20,CCC(NC(C)C)C(O)c1ccc(O)c(O)c1 (centres undefined) [Isoetharine mesylate salt],inactive: 0.926
21,CN1CCc2cccc3c2[C@H]1Cc1ccc(O)c(O)c1-3 [R(-) Apomorphine hydrochloride hemihydrate],inactive: 0.989
22,C[C@@H]1NC(=O)NC1=O [Methylhydantoin-5-(L)],inactive: -0.469
